We go through 30 molecules from PubChem BioAssay AID1347073 (National Center for Advancing Translational Sciences (NCATS), 2019).

Structures are written as SMILES. About 200 (0.44%) of roughly 45,000 compounds were called active. Inconclusive results (about 7%) are left out. Calls follow the shape of the dose curve; as a rule, active = well fitted activation curve with a large enough effect; inconclusive = small, poorly fitted or top-dose-only effect; inactive = no such curve, though single readings can be large or run the other way. Some of the results follow.
Potency is read from the fitted curve at half-maximal effect.

This test can be described thus: qHTS of TDP-43 Inhibitors: NCGC Sytravon Library Screen. Also: nearly all actives have a fitted effect of over 55% in size. As to growth rescue (activation): 0% is about no effect. As to conditions: yeast TDP-43 toxicity rescue, BacTiter-Glo growth, 24 h; series mostly up to 46.1 µM; growth rescue (activation): at the top concentration. The method, boiled down:
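TDP-43-expressing yeast, pregrown in raffinose, seeded at OD600 0.02 in galactose medium with compound for 24 hr at 30 deg C. Growth read by BacTiter-Glo luminescence, so rescue of toxicity appears as activation.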
Consider `COC(=O)c1ccc(C2C(C(=O)Nc3ccccc3C)=C(C)Nc3ncnn32)cc1` (stereo not given), for which the “growth rescue (activation)” value is inactive: 12.5%. Still for that read-out and setting: as for `O=C(O)CCCNC(=O)c1nn(Cc2ccccc2)c(=O)c2ccccc12`, the figure is inactive: 0.0751%. On the same count and under the same terms, as for `CCOc1ccc(/C=N/NC(=O)CSc2n[nH]c(=O)[nH]c2=O)cc1OC`, the figure is inactive: 4.63%. Turning to `Cc1ccc(Nc2c(-c3ccc(N(C)C)cc3)nc3ncccn23)cc1`, the “growth rescue (activation)” value is inactive: 11.7%. `Cc1cc(C)n(C(C)CNS(=O)(=O)c2ccccc2)n1` (stereo not given): the “growth rescue (activation)” value was inactive: 3.22%. On the same count and under the same terms, next, `CC(C)=CCC/C(C)=C/C=N/NC(=O)c1cccc([N+](=O)[O-])c1`: inactive: 7.47%; `O=S(=O)(Nc1ccccn1)c1cnc(Cl)c(Br)c1`: inactive: -6.26%. Still for that read-out and setting: next, `O=C(c1cc(-c2ccc(Cl)cc2Cl)on1)N1CCCCCC1`: inactive: -26.1%; `CC(=O)Nc1cc(C(=O)N(C)Cc2ccco2)ccc1Sc1ccc(C)cc1`: inactive: 8.32%. Still for that read-out and setting: as for `CCC(=O)N1CCN(c2ccc(NC(=O)c3ccc4ccccc4c3)cc2)CC1`, the figure is inactive: -0.155%. Turning to `COc1ccc(N/C=C\C(=O)c2ccc3c(c2)OCO3)cc1OC`, the “growth rescue (activation)” value is inactive: 6.8%. For the molecule `Cc1ccc(S(=O)(=O)Nc2ccc(S(=O)(=O)Nc3nccs3)cc2)cc1C`, the “growth rescue (activation)” value was inactive: 0.235%. The same measure, in the same setting: next, `CCOc1ccccc1NC(=O)N1CCCC1C(=O)NCc1cccs1` (stereo not given): inactive: 14.7%; `CCc1ccc(NC(=O)C(C)OC(=O)/C=C/c2ccc(O)c(OC)c2)cc1` (stereo not given): inactive: -7.45%. The same measure, in the same setting: as for `COc1ccc(-c2cn3cccnc3n2)cc1F`, the figure is inactive: 23%; as for `Cc1ccc(NC(=O)C2CC(=O)Nc3nc4ccccc4n32)c(C)c1` (stereo not given), inactive: -10.3%. For `CC(C)Oc1ccc(CNC(=O)C2CCN(C(=O)c3sccc3-n3cccc3)CC2)cc1`, the “growth rescue (activation)” value was inactive: 9.14%. The same measure, in the same setting: next, `CC(C)(C)Nc1c(-c2ccc(O)cc2)nc2ccc(Cl)cn12`: inactive: 8.77%; `OC(c1cccc(Cl)c1)c1ncc(-c2cccc3ccccc23)[nH]1` (stereo not given): inactive: -12.7%. Same read-out and setting: as for `O=C(CN1C(=O)C(=O)N(Cc2ccco2)C1=O)Nc1ccccc1`, the figure is inactive: 20%; as for `O=C(c1cc(S(=O)(=O)N2CCOCC2)c(Cl)cc1Cl)N1CCCC1`, inactive: 0.337%; as for `Cc1ccc(CNC(=O)COC(=O)[C@@H]2CC(O)CN2S(=O)(=O)c2ccc3c(c2)OCCO3)cc1` (stereo not given in full), inactive: 0.161%. Take `O=C(CNS(=O)(=O)c1cccs1)N1CCCCC1`: the “growth rescue (activation)” value was inactive: 2.07%. On the same count and under the same terms, as for `O=C(COc1nc2ccccc2nc1N1CCOCC1)N1CCc2ccccc21`, the figure is inactive: 20.4%. In the case of `O=C(Nc1ccc(F)cc1)C(Cc1ccccc1)n1cccc1` (stereo not given), the Potency is active: 12.6 µM. `O=C(COc1ccc(-n2cnnn2)cc1)Nc1ccc(Br)cc1F`: the “growth rescue (activation)” value is inactive: 28.4%. The same measure, in the same setting: next, `CCOCCOC(=O)c1ccc(NC(=O)c2cc3ccccc3o2)cc1`: inactive: 12.1%; `O=C(CC1C(=O)NCCN1CC1CCCCC1)NCCCN1CCOCC1` (stereo not given): inactive: 19.6%; `Cc1ccc(OCC(=O)NCCNC(=O)c2ccccn2)cc1`: inactive: 0.0582%. On the same count and under the same terms, next, `CCCCn1c(=O)[nH]c(=O)c2c1nc(-c1ccccc1F)n2Cc1ccccc1`: inactive: 15.3%.
